Assay results taken from PubChem BioAssay AID2546 (National Center for Advancing Translational Sciences (NCATS), 2010).
Among all 310,000 compounds or so, about 11,000 (3.5%) were called active. Inconclusive results, whose numbers are uncertain, are shown with a selection of clear calls. The call rests on the fitted dose curve; in most records, active means well fitted inhibition curve with a large enough effect; inconclusive means small, poorly fitted or top-dose-only effect, or effect the other way; inactive means flat fitted curve, though single readings scatter. No potency is given beside an inconclusive call; the fits are too rough.

Experiment: VP16 counterscreen qHTS for inhibitors of ROR gamma transcriptional activity;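 further: Gal4-VP16 expression switched on by copper sulfate through the metallothionein promoter; nearly all actives have a fitted effect of over 50% in size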
Details: Drosophila S2 Gal4-VP16 UAS-luciferase, luminescence, 20 h; series mostly up to 53.6 µM
Potency means the concentration at half of the fitted maximal effect; tags describe the fitted curve by direction and shape.

SMILES	Potency
O=C(c1ccc(Cl)cc1)N1CCCC(C(=O)N2CCN(c3ccccc3)CC2)C1 (stereo not given)	inconclusive [inhibitor, single point]
COCCn1nnnc1C(c1cc2cc(OC)c(OC)cc2[nH]c1=O)N1CCN(c2ccc(O)cc2)CC1 (stereo not given)	inconclusive [inhibitor, single point]
COC(=O)c1c(C)oc2ccc(NS(=O)(=O)c3cc(OC)ccc3OC)cc12	inconclusive [inhibitor, single point]
O=C(c1cc(-c2ccc(Cl)cc2Cl)on1)N1CCOCC1	inconclusive [inhibitor, partial curve]
Clc1ccc(N/N=C/c2cccnc2)cc1	inconclusive [activator, single point]
O=C(N/N=C/c1ccc(OC(=O)c2ccccc2)c([N+](=O)[O-])c1)c1ccc(O)cc1	inconclusive [inhibitor, partial curve]
CN=C1CC(SC)=C1c1ccc(C)cc1	inactive
COc1ccc(-c2cc(C(F)F)n3ncc(C(=O)N4CCN(C(=O)c5ccco5)CC4)c3n2)cc1	inactive
CN1CCN(C(=S)NC(=O)c2ccc(S(=O)(=O)N3CCOCC3)cc2)CC1	inconclusive [inhibitor, single point]
O=c1c2ccccc2[nH]c2ccc(F)cc12	inconclusive [inhibitor, partial curve]
N#C/C(=C\c1ccncc1)c1nc2ccccc2o1	inconclusive [activator, single point]
Cc1cc(C)c2nc(-c3ccncc3)cc(C(=O)N3CCN(Cc4ccccc4Cl)CC3)c2c1	inconclusive [inhibitor, single point]
O=C(Sc1cccc2cccnc12)c1ccc(F)cc1	active: 4.47 µM
CCN(CC)c1ccc2cc(C(=O)NCc3ccc(F)cc3)c(=N)oc2c1	inactive
CC(=O)Nc1ccc(S(=O)(=O)N(Cc2ccccc2)C(C)C)cc1	inconclusive [inhibitor, single point]
CC(=O)N1CC(C)Sc2ccc(S(=O)(=O)NCCc3cccc(C)c3)cc21 (stereo not given)	inconclusive [inhibitor, single point]
COc1cccc(NC(=S)NNC(=O)Cn2nc(C(F)(F)F)cc2C)c1	inconclusive [inhibitor, partial curve]
CS/C(=N\S(=O)(=O)c1cccs1)Nc1ccc(N2CCOCC2)cc1	inconclusive [inhibitor, single point]
CC(NC(=S)NNS(=O)(=O)c1cccc([N+](=O)[O-])c1)c1ccccc1 (stereo not given)	active: 6.31 µM
C/C=C1\COC(C(=O)NCCOCCO)(C(F)(F)F)C=C1C=C1CCCCC1 (stereo not given)	inconclusive [inhibitor, single point]
O=[N+]([O-])c1ccc(N2CCN(c3ccccc3F)CC2)nc1	inactive
Cn1cc(Cl)c(-c2nc3ccccc3[nH]2)n1	inconclusive [inhibitor, single point]
Cc1ccccc1-c1nc(CS(=O)(=O)CC(=O)N(C)C2CCCCC2)c(C)o1	inconclusive [inhibitor, single point]
Cc1cc(-c2nc3cccnc3s2)ccc1NS(=O)(=O)c1ccc2c(c1)OCCO2	inactive

SMILES	Potency
CCOC(=O)c1c(C)[nH]c(C(=O)N/N=C\c2ccccc2Cl)c1C	inconclusive [inhibitor, single point]
CCn1c2ccccc2c2cc(CN3CCN(C(=O)c4ccco4)CC3)ccc21	inconclusive [inhibitor, single point]
O=C(NCc1ccco1)c1ccc(-c2cccc(Cl)c2)o1	inconclusive [activator, partial curve]
Cn1cc([N+](=O)[O-])c(C(=O)Nc2ccc3nc(-c4ccccc4)[nH]c3c2)n1	inconclusive [activator, single point]
S=c1c2c(nc3nc[nH]n13)CCC2	active: 0.891 µM
Oc1ccc(NCc2cccc(OCc3ccccc3)c2)cc1	inconclusive [inhibitor, single point]
COc1ccc(C2=CC(=O)N(Nc3ccccc3)C2=O)cc1	active: 11.2 µM
CCOC(=O)CNC(c1ccccc1)c1cc(Br)ccc1NC(=O)CCN1CCOCC1 (stereo not given)	active: 8.91 µM
C=CCNC(=S)Nc1ccc(OC)c(S(=O)(=O)N2CCOCC2)c1	inactive
N#Cc1cc2ccc(N3CCOCC3)cc2cc1C#N	inconclusive [inhibitor, single point]
C=CCNc1scc(-c2ccccc2)[n+]1CC=C	inconclusive [inhibitor, single point]
COc1ccc(Nc2nc(NCc3ccco3)nc(N/N=C/c3ccc(O)cc3)n2)cc1	inconclusive [inhibitor, single point]
S=c1nc[nH]c2c1sc1nc(-c3ccccc3)c3c(c12)CCCC3	active: 10 µM
COc1ccc(OC)c(/C=N/NC(=O)c2cc(-c3ccc(C)o3)nc3ccccc23)c1	inconclusive [inhibitor, partial curve]
COC(=O)CNC(=O)C1CCN(S(=O)(=O)c2cnc[nH]2)CC1	inactive
CCOC(=O)N1CCc2c(sc(NC(=O)c3ccc(S(=O)(=O)N4CCCC4)cc3)c2C#N)C1	inconclusive [inhibitor, single point]
Nc1ccc2nn(-c3ccccc3)nc2c1	inactive
Cc1ccc2c(=O)cc(C(=O)NCCc3ccc(S(N)(=O)=O)cc3)oc2c1C	inactive
Nc1nc2c(-c3ccc(Br)cc3)nnn2c2ccccc12	inconclusive [activator, full curve, poor fit]
CCOCCCNC(=O)/C(C#N)=C/c1cc(OC)c(O)c([N+](=O)[O-])c1	inactive
Cc1ccc(C2(C)NC(=O)N(CC(=O)NC(=O)NCCC(C)C)C2=O)cc1 (stereo not given)	inconclusive [inhibitor, single point]
O=C(CNC(=S)NC(=O)c1cccc([N+](=O)[O-])c1)c1ccccc1	active: 12.6 µM
C[C@@H]1CC2(OC(O)[C@]3(C)O[C@H]23)O[C@H]2C[C@@]3(C)[C@@H]4CC[C@H]5C(C)(C)C(O[C@@H]6OC[C@@H](O)[C@H](O)[C@H]6O)CC[C@@]56C[C@@]46CC[C@]3(C)[C@@H]12 (stereo not given in full)	inconclusive [inhibitor, single point]
C/C(=N\NC(=S)NCC(C)(C)C)c1cc(F)cc(F)c1O	active: 3.98 µM

SMILES	Potency
COc1ccccc1-c1nc(NCc2ccccc2)c2ccccc2n1	inconclusive [inhibitor, single point]
Cc1cccc(CNc2nc(-c3ccccc3CN(C)C)nc3ccccc23)c1	inconclusive [inhibitor, single point]
O=C(CSc1ccccn1)Nc1nc2c(ccc3ccccc32)s1	inconclusive [activator, single point]
O=C(CSc1nc2ccccc2c(=O)n1NC(=O)c1ccccc1)c1ccc(Cl)cc1	inactive
CSCCC(NS(=O)(=O)c1ccc2c(c1)oc(=O)n2C)C(=O)NC1CCN(Cc2ccccc2)CC1 (stereo not given)	inactive
CCOc1ccc(CCNC(=O)COC(=O)c2nc3nc(C)cc(C)n3n2)cc1OCC	inconclusive [activator, single point]
O=C(O)c1ccc(CN2C(=O)CSC2=S)cc1	inconclusive [inhibitor, single point]
CCOC(=O)C1CCN(S(=O)(=O)c2cc(C(=O)N3CCCCC3)ccc2OC)CC1	inactive
FC(F)(F)c1ccc(N2CCN(c3ncnc4c3nnn4Cc3ccccc3Cl)CC2)cc1	inconclusive [inhibitor, single point]
CCCCN1C(=S)NC[C@@H]1Cc1cccc2ccccc12	active: 11.2 µM
CCc1nc(SCC(=O)NCCc2ccccc2)c2c(=O)n(C)c(=O)n(C)c2n1	inactive
Cc1cc(C(=O)O)ccc1-c1ccc(/C=C2\SC(=O)N(CC(=O)Nc3ccc4c(c3)OCO4)C2=O)o1	inconclusive [inhibitor, single point]
COc1ccc(Cc2nc3ccc(C(=O)NC4CCOC4)cc3o2)cc1 (stereo not given)	inactive
CCN(CC)c1ccc(/C=N/NC(=O)c2ccoc2C)cc1	inconclusive [inhibitor, single point]
Cc1nc2c(-c3ccc(F)cc3)cnn2c(N)c1-c1ccccc1	inconclusive [inhibitor, partial curve, poor fit]
Cc1ccc(C(=O)Nc2cc(Cl)ccc2OC(=O)c2ccc(C)cc2)cc1	inactive
c1ccc2c(c1)CCCN2Cc1nnnn1C1CCCC1	inconclusive [inhibitor, single point]
O=C(O)/C=C/c1cccc(OCc2ccccc2)c1	inconclusive [inhibitor, partial curve]
Cc1nc2c(-c3ccc(Cl)cc3)c(C)[nH]n2c(=O)c1Cc1ccccc1	inconclusive [inhibitor, single point]
Cc1cccc(-n2c(CNC(=O)Cc3ccccc3)n[nH]c2=S)c1	inactive
O=C(NNc1ncccc1Cl)c1c(Cl)cccc1Cl	active: 14.1 µM
COc1ccc(NS(=O)(=O)c2cccc(NC(=O)c3cnccn3)c2)cc1Br	inconclusive [inhibitor, single point]
